Laboratory results taken from paper PMC6919601, “Identification of Plasmodium dipeptidyl aminopeptidase allosteric inhibitors by high throughput screening” (PLoS ONE, 2019).
Hit rate of the full screen: of about 110,000 compounds, about 230 (0.21%) showed an effect of 50% or more. Some of the results follow.

molecular target: DPAP1 (Plasmodium falciparum, UniProt Q8IIJ9); assay: primary screen, percent inhibition; read by cleavage of a fluorogenic dipeptide substrate; higher = more effect of the substance; design: species or system P. falciparum D10 trophozoite lysates; single well
Sequence (Q8IIJ9 whole entry, looked up): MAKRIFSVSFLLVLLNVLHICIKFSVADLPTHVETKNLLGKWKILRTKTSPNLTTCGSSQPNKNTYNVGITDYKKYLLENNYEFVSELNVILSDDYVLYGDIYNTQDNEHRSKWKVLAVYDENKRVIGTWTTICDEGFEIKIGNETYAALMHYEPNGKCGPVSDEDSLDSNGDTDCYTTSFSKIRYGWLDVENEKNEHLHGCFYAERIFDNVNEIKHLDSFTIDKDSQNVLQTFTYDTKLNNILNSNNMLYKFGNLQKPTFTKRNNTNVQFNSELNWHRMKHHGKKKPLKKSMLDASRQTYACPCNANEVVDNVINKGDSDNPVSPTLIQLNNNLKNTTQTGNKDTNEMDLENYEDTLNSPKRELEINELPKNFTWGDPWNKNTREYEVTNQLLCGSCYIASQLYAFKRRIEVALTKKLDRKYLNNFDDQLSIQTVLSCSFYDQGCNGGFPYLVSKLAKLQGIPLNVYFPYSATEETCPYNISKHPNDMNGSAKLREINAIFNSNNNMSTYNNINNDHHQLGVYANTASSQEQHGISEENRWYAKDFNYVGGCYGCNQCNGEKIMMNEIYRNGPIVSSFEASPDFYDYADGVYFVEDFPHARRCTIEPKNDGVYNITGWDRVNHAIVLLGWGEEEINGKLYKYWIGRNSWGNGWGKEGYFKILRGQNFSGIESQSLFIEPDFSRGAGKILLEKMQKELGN
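Note: 30 min substrate incubation versus DMSO and 10 µM JCP410 controls.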

SMILES	% Inhibition @ 10 uM [%]
CCCCN(C)CCCNC(=O)CN1N=C(c2ccc(Cl)cc2)CCC1=O	0.514
Cc1nn(C)c(C(=O)Nc2ccc(S(=O)(=O)N3CCCC3)cc2)c1Cl	2.44
Cc1nn(C)cc1CNC(=O)C1C2CCC(C2)C1C(=O)O (stereo not drawn)	-3.77
COc1cccc(C2CC(c3c(O)cc(C)oc3=O)=NCCS2)c1OC (stereo not drawn)	-0.0372
CC(=O)C1C2c3ccccc3OC1(C)N=c1s/c(=C/c3cnn(C)c3)c(=O)n12 (stereo not drawn)	-1.1
Cc1cc(C)c(S(=O)(=O)Nc2ccc(O)cc2)c(C)c1	-3.09
Cc1ccccc1-c1nc(CS(=O)CC(=O)NCc2ccc3c(c2)OCO3)c(C)o1 (stereo not drawn)	-2.85
COc1cccc(Cn2c(SCc3ccc(C(=O)N4CCOCC4)cc3)nc3ccncc32)c1	2.65
N=c1n(CCN2CCOCC2)c2ccccc2n1CC(=O)c1ccc(-c2ccccc2)cc1	1.34
COc1ccc2c(c1)c(C(=O)O)c(C)n2CCc1ccc(OC)c(OC)c1	-1.47
CCN1CCN(Cc2ccc(Cl)cc2Cl)CC1	-1.92
CC(CCc1ccccc1)NC(=O)C(=O)NCC1COc2ccccc2O1 (stereo not drawn)	-0.178
CCCC(O)(C(N)=O)c1ccccc1 (stereo not drawn)	-2.78
CCc1cccc(C)c1NC(=O)C1CC=CCC1C(=O)O (stereo not drawn)	-4.89
CCCOc1cccc(C2C3=C(CCCC3=O)N(CCC(=O)O)C3=C2C(=O)CCC3)c1	-3.05
CC(C)c1ccc(C2CC(=O)Nc3c2ccc2ccccc32)cc1 (stereo not drawn)	0.789
COc1cccc(C2CC(C(F)(F)F)n3ncc(C(=O)NC(C)(C)C)c3N2)c1 (stereo not drawn)	-11.5
CCc1ccc(S(=O)(=O)c2nnn3c2nc(N2CCC(C)CC2)c2sccc23)cc1	-5.61
CCC(C)NS(=O)(=O)c1ccc(Cc2ccc(S(=O)(=O)NC(C)CC)cc2)cc1 (stereo not drawn)	-4
O=C1CC(c2cccc3ccccc23)Sc2nc(-c3ccc(F)cc3)nn21 (stereo not drawn)	0.343
CC(C)C[C@H](NC(=O)OCCCC1CCCC1)C(=O)NCC#N	1.71
CCc1nnc(S)n1/N=C/c1ccc(O)cc1	-8.85
CC1=C(C(=O)Nc2ccccc2C)C(c2ccc(Cl)cc2)C2=C(O)CCCC2=N1 (stereo not drawn)	-4.48
c1ccc2[nH]c(C34CC5CC(CC(C5)C3)C4)cc2c1	-0.178
N#Cc1cccn1-c1ccccc1F	-7.57
Cc1nn(CCC#N)c(O)c1C(C)C	-1.07

SMILES	% Inhibition @ 10 uM [%]
Cc1noc2ncnc(N3CCC(C)CC3)c12	-0.171
Cc1nc(O)c(C(=O)/C=C/c2ccc(Cl)cc2Cl)c2c1CCCC2	2.41
COc1ccc(-n2c(SC(C)C)nc3c(c2=O)C2(CCCCC2)Cc2ccccc2-3)cc1	-2.48
Cc1ccc2nc(C3C(=O)c4ccc(Br)cc4C3=O)ccc2c1 (stereo not drawn)	-3.42
Cc1ccc(N(CC(=O)N2CCc3ccccc3C2)S(C)(=O)=O)cc1Cl	-1.41
Cc1cc(OCC(=O)NC2CCCCCC2)ccc1Cl	-1.55
Cc1cc(C)c2nc(N3CCCC(C(=O)NC4CCCC4)C3)sc2c1 (stereo not drawn)	0.137
CCN(CC)CCOc1c(OC)cccc1OC	-2.2
Cc1cccc(N2C(=O)C3C4C=CC(C4)C3C2=O)c1C (stereo not drawn)	8.09
CCCOc1ccc(C2C3=C(O)CCCC3=NC(C)=C2C(=O)Nc2ccccc2C)cc1OC (stereo not drawn)	3.05
C=CCNC(=O)c1c(O)c2ccccc2n(C)c1=O	-0.711
O=C(O)CCC(=O)Nc1sc2c(c1C(=O)Nc1ccc(Cl)cc1)CCCC2	16.8
CCCCOc1ccc(C(=O)Nc2nc3c(s2)Cc2cc(OC)ccc2-3)cc1	-0.0735
CC(NC(=O)C1c2ccccc2C(=O)N(C)C1c1cccs1)c1ccccc1 (stereo not drawn)	4.59
CCOc1cc(/C=C2/C(=N)N3OC(C)=CC3=NC2=O)cc(Cl)c1OCc1ccccc1	-3.23
CC(c1ccccc1)c1nnc(N)s1 (stereo not drawn)	3.25
COc1ccc(C2(C)N(O)C(C)C(c3cccs3)=[N+]2[O-])cc1 (stereo not drawn)	-3.41
CCCCC(=O)Nc1nonc1-c1ccc(OCC)cc1	3.84
COc1ccc(OCC(O)CN2CCCCCC2)cc1 (stereo not drawn)	2.44
COc1ccc(-c2noc(N3CCC(C(=O)N4CCN(C(=O)c5ccco5)CC4)CC3)n2)cc1	-3.1
CC(=O)Nc1noc2ccccc12	3.57
COc1ccc(C2CC(=O)N=C(NC(=O)c3cccc(Cl)c3)N2)c(OC)c1OC (stereo not drawn)	0.723
CCOc1ccc(CC(=O)Nc2ccc(N(C)C(C)=O)cc2)cc1OCC	1.28
CN1C(=O)c2ccc(NC(=O)c3ccc(OCc4ccccc4)cc3)cc2C1=O	-0.0619
Cc1ccc(N2C(=O)CC(N(C)Cc3ccccc3)C2=O)c(C)c1 (stereo not drawn)	-5.69
